Over roughly 33,000 sequences, “E-score (-0.5 to 0.5)” has its median near -0.056; the highest 2% begin near 0.38. This is one part of the list.
Target: Stb4 (UniProt P50104)
Assay: PBM E-score (8-mer binding enrichment) (E-score (-0.5 to 0.5)); higher = stronger / more preferred TF binding; most listed sequences are background and not binding sites
Conditions: protein concentration: 200 nM; construct: GST-DNA-binding domain
In short: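 Universal all-10-mer Agilent arrays, fresh or stripped once, were converted to double-stranded form by primer extension. GST-tagged yeast transcription factors from PURExpress in vitro transcription/translation, full-length or DNA-binding domain only, were applied at about 100-200 nM and detected with fluorescent anti-GST. After masliner normalisation, the Universal PBM Analysis Suite scored each ungapped eight-base word together with its reverse complement by E-score.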

Sequence | PBM E-score
TCTACGCA | -0.159
GCAACCGA | 0.259
GGATGTGA | 0.254
TCTAAGCA | -0.185
AATAGTGG | -0.0784
AAAAATCT | 0.11
GGAATTCC | 0.232
AACGAGGA | -0.00896
GAACCCGC | 0.145
CGGTCGGC | 0.318
AGAGTTAA | -0.2
AACCCGTG | -0.107
AACTTGCC | 0.139
CGAAGTTC | 0.157
AGAATTAG | -0.092
GTTTGTCA | -0.0445
ATGCCTAC | -0.156
TGAAGCAA | -0.248
CCTGACTA | -0.221
ATAATCTC | -0.0134
GGTCTTTA | 0.057
ATGCGAAC | 0.0435

Sequence | PBM E-score
ATCGTTAG | -0.133
AATCGAGA | -0.161
CATTTACG | -0.0904
CCGCGCTC | 0.128
AACCTGCT | -0.0315
AATAGCAA | -0.105
CGTAGTAG | -0.0531
ATACGGAG | 0.072
ATTTCGAG | -0.0811
GCTTCTTA | -0.00913
GAATCGCA | -0.141
CGTAGCGC | -0.0733
ATGCGTTA | 0.0365
ATTGGTAG | -0.177
ATCCCGAC | 0.387
AAAAGCAA | -0.0503
GGTAAGTA | 0.148
GCCGTAGA | 0.193
ACCGATAC | 0.177
ACAAGACA | -0.104
AGGGGCAG | -0.0943
AGGTCCCA | -0.224

Sequence | PBM E-score
CCAGGTGC | 0.0398
AGTAGGTC | -0.137
AGTAGGAA | -0.251
CGGGGGAA | 0.224
ACCTAGAC | 0.00327
CAGGTCCG | 0.131
CCGGTCCA | 0.0504
AGCTTAGG | -0.0751
CTAGTTCC | 0.215
CTCCAAAC | -0.0386
CACGTTTA | -0.132
CTCACCTA | -0.169
TACTCCTA | -0.336
GTGAACCA | -0.124
GGTGTGCA | -0.205
ACCTCGAT | -0.0822
AAGACAGG | -0.165
CTTTATGA | -0.343
GAGAGTCC | -0.139
AAAAGCGG | 0.0741
CCGCGAAG | 0.175
AATTGTAG | 0.00679

Sequence | PBM E-score
CGACGCCA | -0.0172
AGTGTCCA | -0.175
GACAGTTA | -0.0347
AGATCACG | -0.119
AGAACTGC | -0.241
TCCGCGAA | 0.255
TCACTAAA | -0.239
AGCACAGG | -0.138
CGACTAAA | -0.0989
ATCACGAA | -0.225
AAATAAAG | -0.128
GGCTACGA | 0.0376
ACGCAGTC | -0.357
AGGACCCA | -0.162
AATTGGAC | 0.0728
CCATGCGC | -0.0476
AATGTACA | -0.011
CCTAGTAA | -0.107
CATCATCC | 0.101
GGTGCACC | 0.0558
